# Experimental data taken from paper PMC10726135.
# The list shows a part of the results. At the low end of the ranking, values are background and their order means little. Measured with an extract: partners may take part in the binding.
# Target: T1, HNF4alpha8 (COS-7 nuclear extract) (UniProt P41235-5)
# T1 sequence: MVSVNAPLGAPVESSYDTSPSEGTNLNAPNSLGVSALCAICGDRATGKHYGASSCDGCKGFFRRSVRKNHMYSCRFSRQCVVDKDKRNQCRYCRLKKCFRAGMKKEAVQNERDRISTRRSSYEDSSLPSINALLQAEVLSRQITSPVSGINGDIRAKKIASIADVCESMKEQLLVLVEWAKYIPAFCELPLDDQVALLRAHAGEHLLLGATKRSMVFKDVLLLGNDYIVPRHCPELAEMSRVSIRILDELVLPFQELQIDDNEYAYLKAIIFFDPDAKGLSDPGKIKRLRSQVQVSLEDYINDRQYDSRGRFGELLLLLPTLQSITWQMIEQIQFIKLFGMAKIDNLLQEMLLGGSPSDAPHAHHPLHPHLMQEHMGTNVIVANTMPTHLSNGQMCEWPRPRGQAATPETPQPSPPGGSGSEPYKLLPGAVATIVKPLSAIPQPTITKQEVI
# Experiment: protein-binding microarray
# Conditions: COS-7 nuclear extract on double-stranded Agilent 4x180k PBM; binding buffer, salt, pH and temperature not given; high values mean tight binding; double strand, one strand shown; sequences stand for … in …GCCTAGGGAGATTAGAGTATCGGTCGA
row,Sequence,binding signal (log2 normalized intensity)
1,ATTCTCTGGAAAAGGTCTGCTGTACATATT,1.35
2,GAAGAAGTGTTAAGGACAACCGGTAGCACA,-1.33
3,TGGGAAGTCCAAAGTCTGCAGGGTAGGCAG,3.24
4,GCCATCCAGGGCATTGCCGTTCAGGGCCAC,-1.26
5,GCCTGACTCCCTGACGCCATCTGGCGTCCC,-1.24
6,GAATGCACCCTTTTGACCACACAGCAAGGC,0.472
7,CCTTTGGAGGGGAAGCTGGGCAGGCGCCGA,-1.35
8,GGATTAACCACAGAAATGCCGCTAATGTAT,-1.38
9,AGGAAGGACATGGTAAAGATGACCAGCGTG,-1.08
10,TCCTAATGCCCAAATGAATAATCCCCTCCT,3.71
11,ACAACTTTCATTGAACTGCTGGGGGTAAAG,0.684
12,CTTTAAACATTCTTCTCAGTGTTTTGGGTC,1.98
13,CTCTAAGCACGGCCAGGATTAACCACAGAA,-1.3
14,AACCTTCATCTCTCTTTGTTGACATCTGCT,-0.0144
15,GTGTGACCTTTGCCTTCTTGACATCTCTCT,5.21
16,AACCTTTGCTCCCTGGGAACCCCTCCAGCA,4.73
17,GTCAGACTTGCCACGGAATCCCAGTTCTGA,-1.32
18,GTGGGCAAGTTATCTCGGGGTGGCATGTAT,1.04
19,AAACTACTTTATATTCCTTTGTATCTGTAC,1.41
20,AGTGATATGGAGAGGAAAGATGGGGATATA,-1.39
21,CAACCTCCACATTGCAACAATGTCCTTGAA,0.277
22,TTCTTATTCTGTCACCAAAGCAAGCAGATG,-1.28
23,GTTATCTGCATTCCAGCTCAATCAAGGACT,-1.27
24,TTGCACCAAGGAGACACCCCTGCAGAAGCG,-1.32

row,Sequence,binding signal (log2 normalized intensity)
1,ATCTCTGGCAAAGCTATTCACTTTTTGGCC,0.906
2,TTAATTTCTAACCAATGCAGCTGGGAGATA,-0.517
3,ATTAAGTGCAGTGATCAATCAGCAGCAAAG,-1.07
4,CCTCCAGCTACTCACTCTTCCCAAATAGGT,-0.273
5,GTCTTTTCTCCCCCGATAAGGCTGCCTCCT,3.7
6,TACACTTGGAGAAAAAAAACCATTGCAAAT,-1.33
7,ATTGAGGCAGCCAGCGCAGGGGCTTCTGCT,-1.21
8,CAACCTTATCAGCAGGACACCAAACAGACC,-1.29
9,TGAGTAGTGTACGTTGTACCCCACAGGTAT,3.39
10,TGCAGAGTCACACACACCTGTGTCCCCCAG,3.39
11,GGATAGCGCGTGGCCCAAGGCCTCTGACAT,-1.16
12,TGCCTCTTTTCTGCTTTTGGAATTTGACCT,8.78
13,GGGCTGGAACACAAAGAAAGCCAAAGTTCA,2.9
14,CCCACACCTCCCCTTTGTTTAACTTACTAT,1.43
15,GTGACATACTGCCTTTCTAGAACCAGAATT,-1.36
16,GGTGGGAAAAGAAATGTAGTGACAGAAGGG,-1.29
17,ACAGTGCCTATGTTGGAATGCCTAAAGTAG,-1.15
18,GTCGCTGTGATGTTTGTAAACTGTCATGGT,1.54
19,TTCTGGGGACTTCGGTCTTTTTTCTGAAGA,1.28
20,GATGTTCGTTTGGATCGCTTGGCTCAGGCC,-1.32
21,CTGTTTGAGGGTAAAGATCTTGAGGCCCAC,-0.0412
22,GGGGAGAGTTTAAGGTTGTACTTTGGAGTT,5.33
23,TGATAAACACTTGCCTACTTTATGGTAAAC,-1.18
24,TAATTAAGACCAAACTGCTGAAGATAAGAC,-1.35

row,Sequence,binding signal (log2 normalized intensity)
1,GGAAGGAAAAGAGGAAAACCAGCTCAGTGG,-1.38
2,GGAGCAGAGCGATCAAAGGTCACAGAGACC,6.2
3,GAATGCCTAAAGTAGGTCTTAAATAATTAA,-1.2
4,CAAATACCTCCAAGAGGTTTTAGGCTATCA,-1.33
5,TGTTTGCGCAAACTATCTAAACAGACTAGT,-1.09
6,ATACATTTGCCTGAACTTTAAACTGGTGTG,3.38
7,CTGCCCTTTGGAACCTGCCCTCTGTCCCAT,4.63
8,ACAAAGATCATAAATGCCTCCCCCTCTTTA,3.85
9,TGGGAACCCCAAGTTATCTTGAGACCTCAA,0.616
10,TGGGCTGGGACTCATTTATGGAGGAATTTG,0.0801
11,AGATACTGAATCTCCCAGTGCTTTGATCTT,1.39
12,CAGATCCAGTGGACTCTCTGTTTGATCAGC,2.28
13,TAAGACAGACCCAAAGGTTAAGGAAACAAG,-1.2
14,AAGTCCATCTGTATTGCCTCCTTTGTAGGC,1.7
15,AACATATACTTTATTAGGGTGAAAAATTAG,-0.0218
16,TTTTGTACTTCCTTCACTCTGGGGCAATAA,1.53
17,TTGATGAGTCTTAGAGTCCAGACACAAAGA,0.55
18,ATTAACCTTTGTACCAAAATCACACTGGGA,3.75
19,ATTCCTCTATCTCCCTGTGACCTCCAACTA,3.13
20,CTTTGGTAGGCTGTATGGCTGCACAGGGCT,-1.38
21,GAATTCTTGACTTTGGACTTTCAAAAGTTA,5.14
22,ACCCAATACCCAGAGTGATCTTTGAAACAT,3.55
23,GTCTTAGGGACTAAGCTTGTAGACCAAGGA,-0.97
24,TTGAGTCCTTCATGGCTACCCTTCATCTTC,0.864

row,Sequence,binding signal (log2 normalized intensity)
1,GCAATGTGGACTTTGTCCTGTGGGCTGTAA,8.03
2,CGCAGACCCAGTCTTAGGGACTAAGCTTGT,-1.29
3,GAGTTATCTCTTGACTCTTCCCATCTAACT,-1.11
4,GGACATTGGCTGATAAAACAAATCTACAAA,-1.1
5,ATTGTACAGGTTCCCTCATGATTTAGTAAG,0.138
6,AACCTAGACAGAAGCTTTCTGAGAAACTTC,-1.31
7,CAGGGTCTAGCAGTGCAGCGGGGTCAGAGA,2.7
8,GCATGGTGATGCTAGCTACTACATGATGCT,-1.3
9,TCCTTGTCTGTTTGGCCTTAGGTCCTTTGA,2.56
10,CCAACAGTTGAGAATTCCAGAGATGCCAGG,-1.26
11,TCTGGGCCTGGCAAGACTTCTTCAGGGAGA,-1.21
12,TCTGCCTTTTATCTATTTGTCGCCTCTGAC,0.313
13,TTTCCTGCCCCTTCACATATTTTGAAAGAA,1.43
14,CTTGCTTAGGATAGGGTCAGTCTTTGTTCT,2.28
15,AGATGAGCCAGGCCAACACCAAGCAAGCTC,-1.3
16,GGTTCCCACAGCCCAACTCGGAGGACTGAG,-1.36
17,TGCACTTTACTCAGAAAGGTCAGCGCTTTG,1.68
18,ACCTGGCCTGCGGGGTCAGGCCGTGGTGTA,2.54
19,AGCAAGTCAGATGGCCAAAGTCAACATTGA,0.939
20,GAGTTCTAAGAGCCTACTGAGAGGAAAGGG,-1.38
21,CGTAAATGCACGGAAGCCTTCCCCGCCCGC,3.1
